{
  "source": "PubChem BioAssay AID1645882",
  "about": "(National Center for Advancing Translational Sciences (NCATS), 2021)",
  "note": "Among all 16,000 compounds or so, about 120 (0.75%) were called active. Roughly 4% stayed inconclusive and do not appear here. Calls follow the shape of the dose curve; as a rule, active = well fitted inhibition curve with a large enough effect; inconclusive = small, poorly fitted or top-dose-only effect; inactive = no such curve, though single readings can be large or run the other way. This is one part of the list. A structure can be active in one record and inactive in another. Potency is read from the fitted curve at half-maximal effect.",
  "data": [
    {"molecular_target": "Rap guanine nucleotide exchange factor 3 (Homo sapiens) (UniProt O95398)", "sequence (O95398 whole entry, looked up)": "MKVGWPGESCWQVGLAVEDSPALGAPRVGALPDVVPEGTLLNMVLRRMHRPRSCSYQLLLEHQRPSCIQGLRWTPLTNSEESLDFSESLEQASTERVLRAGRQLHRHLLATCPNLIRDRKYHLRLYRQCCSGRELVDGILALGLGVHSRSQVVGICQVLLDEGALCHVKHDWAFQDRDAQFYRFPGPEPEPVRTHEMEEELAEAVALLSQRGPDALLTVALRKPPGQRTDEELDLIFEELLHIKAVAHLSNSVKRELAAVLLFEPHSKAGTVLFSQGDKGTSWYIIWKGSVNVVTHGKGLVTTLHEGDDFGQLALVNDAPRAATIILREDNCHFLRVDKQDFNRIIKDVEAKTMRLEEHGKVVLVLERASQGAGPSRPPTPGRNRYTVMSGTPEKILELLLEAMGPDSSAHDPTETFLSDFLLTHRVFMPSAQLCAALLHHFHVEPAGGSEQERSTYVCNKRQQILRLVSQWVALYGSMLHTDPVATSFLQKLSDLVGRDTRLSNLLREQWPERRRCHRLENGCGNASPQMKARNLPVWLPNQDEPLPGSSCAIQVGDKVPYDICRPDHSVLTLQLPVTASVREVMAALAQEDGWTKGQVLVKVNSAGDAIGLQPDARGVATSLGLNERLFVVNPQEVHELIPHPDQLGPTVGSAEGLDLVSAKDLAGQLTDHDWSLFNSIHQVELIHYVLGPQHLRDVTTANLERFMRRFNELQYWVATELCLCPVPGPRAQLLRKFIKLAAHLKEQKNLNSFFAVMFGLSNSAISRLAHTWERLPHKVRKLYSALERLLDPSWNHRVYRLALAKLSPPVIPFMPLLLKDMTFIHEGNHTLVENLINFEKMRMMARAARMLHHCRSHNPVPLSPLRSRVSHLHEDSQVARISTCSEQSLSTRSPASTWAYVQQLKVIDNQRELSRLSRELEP", "test": "Validation qHTS for antagonist of cAMP-regulated guanine nucleotide exchange factor 3 (EPAC1); also: nearly all actives have a fitted effect of over 75% in size;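 as to activity change, negative = inhibition: plate controls were DMSO for no effect and ATA control for full effect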", "conditions": "EPAC1 Rap1B-BODIPY-GDP exchange, fluorescence; series mostly up to 150 µM; activity change, negative = inhibition: at the top concentration", "outline": "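Nucleotide exchange followed as fluorescence loss when BODIPY-GDP leaves Rap1B (480 nm excitation, 540 nm emission), read at 5 min intervals over 30 min. Reaction: 100 nM EPAC1, 250 nM RAP1B-BODIPY-GDP, 50 uM GDP; ATA and DMSO define normalization.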", "values": [
      {"smiles": "CCN(CC)CCOC(=O)C(C)(c1ccccc1)c1ccccc1", "activity change, negative = inhibition": "inactive: 7.07%"},
      {"smiles": "CNC(=O)O/N=C/C(C)(C)SC", "activity change, negative = inhibition": "inactive: 16.2%"},
      {"smiles": "NCC(=O)c1cccc([N+](=O)[O-])c1", "activity change, negative = inhibition": "inactive: 8.82%"},
      {"smiles": "O=[N+]([O-])c1cc(O)c(O)c([N+](=O)[O-])c1", "Potency": "active: 79.4 µM and inactive"},
      {"smiles": "CN[C@@H]1C[C@@H](c2ccc(Cl)c(Cl)c2)c2ccccc21", "activity change, negative = inhibition": "inactive"},
      {"smiles": "O=C(O)Cc1cccnc1C(=O)O", "activity change, negative = inhibition": "inactive"},
      {"smiles": "C[C@H](N)Cc1cnc[nH]1", "activity change, negative = inhibition": "inactive"},
      {"smiles": "CCC1(c2ccccc2)C(=O)NC(=O)N(C)C1=O", "note": "(stereo unspecified)", "activity change, negative = inhibition": "inactive: 8.79%"},
      {"smiles": "CCCC(C)C1(CC)C(=O)N=C(S)NC1=O", "note": "(stereo unspecified)", "activity change, negative = inhibition": "inactive"},
      {"smiles": "Nc1ccccc1C(=O)O", "activity change, negative = inhibition": "inactive: 10.3%"},
      {"smiles": "C=CC[C@]1(O)CC[C@H]2[C@@H]3CCC4=CCCC[C@@H]4[C@H]3CC[C@@]21C", "activity change, negative = inhibition": "inactive: -4.26%"},
      {"smiles": "CN(C)C1C(=O)C(C(N)=O)=C(O)[C@@]2(O)C(=O)C3=C(O)c4c(O)cccc4[C@@](C)(O)C3[C@H](O)C12", "note": "(stereo partly specified)", "activity change, negative = inhibition": "inactive: 9.52%"},
      {"smiles": "CC1CC[C@]2(NC1)OC1CC3C4CC=C5CC(O)CC[C@@]5(C)C4CC[C@]3(C)C1C2C", "note": "(stereo partly specified)", "activity change, negative = inhibition": "inactive: 5.69%"},
      {"smiles": "c1ccc(CCCCN2CCC(c3ccccc3)CC2)cc1", "activity change, negative = inhibition": "inactive"},
      {"smiles": "Cc1cc(O)ccc1Cl", "activity change, negative = inhibition": "inactive"},
      {"smiles": "N[C@@H](Cn1ccc(=O)[nH]c1=O)C(=O)O", "activity change, negative = inhibition": "inactive: 14.8% [at 75.8 µM]"},
      {"smiles": "CCCN(CCC)c1c([N+](=O)[O-])cc(C(F)(F)F)cc1[N+](=O)[O-]", "activity change, negative = inhibition": "inactive: 4.81%"},
      {"smiles": "C=CCN1CCC2(C)c3cc(O)ccc3C[C@H]1[C@H]2C", "activity change, negative = inhibition": "inactive: 6.25%"},
      {"smiles": "C=C(C)[C@H]1CN[C@H](C(=O)O)[C@H]1CC(=O)O", "activity change, negative = inhibition": "inactive"},
      {"smiles": "c1cnc(N2CC[C@@]3(CCCNC3)C2)nc1", "activity change, negative = inhibition": "inactive: 15.1%"},
      {"smiles": "NC1CC1c1ccccc1", "note": "(stereo unspecified)", "activity change, negative = inhibition": "inactive: 2.39% [at 75.8 µM]"},
      {"smiles": "CCC(C)(S(=O)(=O)CC)S(=O)(=O)CC", "activity change, negative = inhibition": "inactive: 8.45%"},
      {"smiles": "O=c1cccc2n1CC1CC2CN2CCCC[C@H]12", "note": "(stereo partly specified)", "activity change, negative = inhibition": "inactive: 17.6%"},
      {"smiles": "CC(C)N(C(=O)CCl)c1ccccc1", "activity change, negative = inhibition": "inactive: 21.4%"},
      {"smiles": "COc1ccc2c(c1)c(CCN1CCOCC1)c(C)n2C(=O)c1cccc(Cl)c1Cl", "activity change, negative = inhibition": "inactive: 11.8% [at 75.8 µM]"},
      {"smiles": "C=CCN1C[C@@H](C)N([C@H](c2ccc(C(=O)N(CC)CC)cc2)c2cccc(OC)c2)C[C@@H]1C", "activity change, negative = inhibition": "inactive: 10.8% [at 75.8 µM]"},
      {"smiles": "Oc1ccc2c3c1O[C@H]1c4oc5ccccc5c4C[C@@]4(O)C(C2)N(CC2CC2)CC[C@]314", "activity change, negative = inhibition": "inactive: 15.3%"},
      {"smiles": "Nc1ncn[nH]1", "activity change, negative = inhibition": "inactive: -2.02%"},
      {"smiles": "COc1ccc(CN2CCNCC2)c(OC)c1OC", "activity change, negative = inhibition": "inactive: 20.8% [at 75.8 µM]"},
      {"smiles": "Cc1c(C(=O)c2ccc3ccccc3c2)c2cccc3c2n1[C@H](CN1CCOCC1)CO3", "activity change, negative = inhibition": "inactive: 1.31%"},
      {"smiles": "C=CCC1([C@@H](C)CCC)C(=O)NC(=O)NC1=O", "activity change, negative = inhibition": "inactive: 19.2% [at 320 µM]"},
      {"smiles": "CC(C)NC[C@H](O)c1ccc(N)c(C#N)c1", "activity change, negative = inhibition": "inactive: 3.15%"},
      {"smiles": "CCCN(CCC)CCc1c[nH]c2ccc(C(N)=O)cc12", "activity change, negative = inhibition": "inactive"},
      {"smiles": "CCN1C[C@]2(COC(=O)c3ccccc3N3C(=O)CC(C)C3=O)CC[C@H](OC)[C@@]34C5C[C@@H]6[C@@H](OC)C[C@@](O)(C5[C@H]6OC)[C@](O)([C@@H](OC)C23)[C@@H]14", "note": "(stereo partly specified)", "activity change, negative = inhibition": "inactive: 13.7%"},
      {"smiles": "CC(C)(N)Cc1ccc(Cl)cc1", "activity change, negative = inhibition": "inactive: 19.8%"},
      {"smiles": "CN(C)C1C(=O)C(C(N)=O)=C(O)[C@@]2(O)C(=O)C3=C(O)c4c(O)ccc(Cl)c4[C@](C)(O)C3CC12", "note": "(stereo partly specified)", "activity change, negative = inhibition": "inactive: -10.7%"},
      {"smiles": "c1ccc2c(N3CCNCC3)cccc2c1", "activity change, negative = inhibition": "inactive"},
      {"smiles": "CCCCNCC(O)c1ccc(O)cc1", "note": "(stereo unspecified)", "activity change, negative = inhibition": "inactive: 6.82%"},
      {"smiles": "CN(C)CCO", "activity change, negative = inhibition": "inactive: 25.6%"},
      {"smiles": "COCCOCCO", "activity change, negative = inhibition": "inactive: 22.2% [at 320 µM]"},
      {"smiles": "c1cc(N2CCCC3(CCNCC3)C2)ccn1", "activity change, negative = inhibition": "inactive: 20.3%"},
      {"smiles": "COC1=CC2C3Cc4ccc(OC)c(O)c4[C@]2(CCN3C)CC1=O", "note": "(stereo partly specified)", "activity change, negative = inhibition": "inactive: -8.96%"},
      {"smiles": "CC1O[C@@H](OC2CC(O)[C@@]3(CO)C4C(O)C[C@@]5(C)C(C6=CC(=O)OC6)CC[C@]5(O)C4CC[C@]3(O)C2)C(O)C(O)C1O", "note": "(stereo partly specified)", "activity change, negative = inhibition": "inactive: 7.17%"},
      {"smiles": "CCCCC[C@@H](/C=C/C=C\\CCCCCCCC(=O)O)OO", "activity change, negative = inhibition": "inactive: 13.2% [at 1.57 µM]"},
      {"smiles": "CN1Cc2ccccc2[C@@H]2c3cccc4[nH]cc(c34)C[C@H]21", "activity change, negative = inhibition": "inactive"},
      {"smiles": "C=C[C@H]1CN2CC[C@H]1C[C@H]2[C@H](OC(=O)OCC)c1ccnc2ccc(OC)cc12", "activity change, negative = inhibition": "inactive: 12.7%"},
      {"smiles": "O=C(N[C@H]1CN2CCC1CC2)c1ccc(Cl)cc1", "activity change, negative = inhibition": "inactive: -5.7% [at 75.8 µM]"},
      {"smiles": "O=[N+]([O-])c1ccc2nc(N3CCNCC3)ccc2c1", "activity change, negative = inhibition": "inactive"},
      {"smiles": "N[C@@]1(C(=O)O)CC[C@H](C(=O)O)C1", "activity change, negative = inhibition": "inactive"},
      {"smiles": "C[C@H]1C[C@H](C)C(=O)[C@@H]([C@H](O)CC2CC(=O)NC(=O)C2)C1", "activity change, negative = inhibition": "inactive: -7.98%"},
      {"smiles": "C[N+]1=Cc2cc3c(cc2CC1)OCO3", "activity change, negative = inhibition": "inactive: 10.5%"},
      {"smiles": "C[C@]12C=CC(=O)C=C1CC[C@@H]1[C@@H]2CC[C@@]2(C)[C@H]1CC[C@]2(C)O", "activity change, negative = inhibition": "inactive: 30.4%"},
      {"smiles": "CN(C)C1C(=O)C(C(N)=O)=C(O)[C@@]2(O)C(=O)C3=C(O)c4c(O)cccc4[C@@](C)(O)C3C[C@@H]12", "note": "(stereo partly specified)", "activity change, negative = inhibition": "inactive: -1.22%"},
      {"smiles": "c1csc(CN2CCC3(CCNCC3)CC2)n1", "activity change, negative = inhibition": "inactive: -1.81%"},
      {"smiles": "CN1CCC2=C[C@@H](O)[C@@H]3OC(=O)c4cc5c(cc4C3C21)OCO5", "note": "(stereo partly specified)", "activity change, negative = inhibition": "inactive: -4.19%"},
      {"smiles": "C[C@]12CC[C@H]3[C@@H](CCC4=CC(=O)CC[C@@H]43)[C@@H]1CC[C@@H]2O", "activity change, negative = inhibition": "inactive"}
    ]}
  ]
}
